Experimental data taken from patent US20250002455A1, “NEW N-PHENYLPYRROLAMIDE INHIBITORS OF DNA GYRASE AND TOPOISOMERASE IV WITH ANTIBACTERIAL ACTIVITY” (priority 2020, published 2025).

What was measured:
[1] = tested on: M. tuberculosis H37Rv; assay: microbe, parasite or virus in culture; conditions: Mycobacterium tuberculosis; for viability at 1.25 µM / viability at 2.5 µM / viability at 5 µM / viability at 10 µM / viability at 20 µM: 168 h, read-out: Viability of Mycobacterium tuberculosis H37Rv (%)
[2] = tested on: THP-1 macrophages infected with M. tuberculosis H37Rv

| Compound | viability at 1.25 µM [1] | viability at 2.5 µM [1] | viability at 5 µM [1] | viability at 10 µM [1] | % GFP-Mtb [2] | % THP-1 macrophages [2] | MIC90 [1] | viability at 20 µM [1] |
| --- | --- | --- | --- | --- | --- | --- | --- | --- |
| Cc1[nH]c(C(=O)Nc2ccc(-c3nn[nH]n3)cc2N2CCCC(CN)C2)c(Cl)c1Cl.Cl (centres unmarked) [Example 9, (1-(2-(3,4-Dichloro-5-methyl-1H-pyrrole-2-carboxamido)-5-(2H-tetrazol-5-yl)phenyl)piperidin-3-yl)methanaminium chloride] | 5.9% | 3.7% | 1.5% | 0.2% | 7.8% | 46.4% |  |  |
| Cc1[nH]c(C(=O)Nc2ccc(-c3n[nH]c(=O)o3)cc2N2CCC[C@H](N)C2)c(Cl)c1Cl.Cl [Example 18, (S)-1-(2-(3,4-Dichloro-5-methyl-1H-pyrrole-2-carboxamido)-5-(5-oxo-4,5-dihydro-1,3,4-oxadiazol-2-yl)phenyl)piperidin-3-aminium chloride] | 9.6% | 8.5% | 5.8% | 2.5% | 4.2% | 35.0% | 2.5 µM |  |
| Cc1[nH]c(C(=O)Nc2ccc(-c3n[nH]c(=O)o3)cc2NC2CCNCC2)c(Cl)c1Cl.Cl [Example 19, 4-((2-(3,4-Dichloro-5-methyl-1H-pyrrole-2-carboxamido)-5-(5-oxo-4,5-dihydro-1,3,4-oxadiazol-2-yl)phenyl)amino)piperidin-1-ium chloride] | 90.2% | 56.8% | 22.8% | 2.1% | 14.0% | 19.3% |  | 0.8% |
| Cc1[nH]c(C(=O)Nc2ccc(-c3n[nH]c(=O)o3)cc2N2CC[C@H](N)C2)c(Cl)c1Cl.Cl [Example 20, (S)-1-(2-(3,4-Dichloro-5-methyl-1H-pyrrole-2-carboxamido)-5-(5-oxo-4,5-dihydro-1,3,4-oxadiazol-2-yl)phenyl)pyrrolidin-3-aminium chloride] | 6.3% | 6% | 4% | 1% | 5.6% | 17.0% |  |  |
| Cc1[nH]c(C(=O)Nc2ccc(-n3nn[nH]c3=O)cc2N2CCC(N)CC2)c(Cl)c1Cl.Cl [Example 23, 1-(2-(3,4-Dichloro-5-methyl-1H-pyrrole-2-carboxamido)-5-(5-oxo-4,5-dihydro-1H-tetrazol-1-yl)phenyl)piperidin-4-aminium chloride] | 76.3% | 69.5% | 36.2% | 12.4% | 33.5% | 19.6% |  | 7.1% |
| Cc1[nH]c(C(=O)Nc2ccc(-n3nn[nH]c3=O)cc2N2CCN(c3ccccc3)CC2)c(Cl)c1Cl [Example 24, 3,4-Dichloro-5-methyl-N-(4-(5-oxo-4,5-dihydro-1H-tetrazol-1-yl)-2-(4-phenylpiperazin-1-yl)phenyl)-1H-pyrrole-2-carboxamide] | 74.4% | 75% | 65.2% | 71.5% | 71.9% | 21.0% |  | 71.8% |
| Cc1[nH]c(C(=O)Nc2ccc(-c3n[nH]c(=O)o3)cc2OC2CCNCC2)c(Cl)c1Cl.Cl [Example 27, 4-(2-(3,4-Dichloro-5-methyl-1H-pyrrole-2-carboxamido)-5-(5-oxo-4,5-dihydro-1,3,4-oxadiazol-2-yl)phenoxy)piperidin-1-ium chloride] | 8.1% | 4.1% | 3.9% | 4% | 9.0% | 14.4% |  | 3.5% |
